34 variants from the RNAGym collection of RNA variant scans (doi:10.1093/nar/gkz1192) can be followed below.

Read counts are not given, so values of variants with three or more changes are uncertain.

B1: CPEB3 Ribozyme (parent)
chain: UAACAGGGGGCCACAGCAGAAGCGUUCACGUCGCAGCCCCUGUCAGAUUCUGGUGAAUCUGCGAAUUCUGCUGUAUAUCUC

In this data set the parent is B1. The experiment in a line: self-cleavage, relative activity (ratio to wild type); higher = more cleavage; in vitro, sequencing. An outline of the steps:
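Relative activity compares each variant's cleaved/total read fraction with that of the unmutated ribozyme. To get these fractions, barcoded CPEB3 ribozyme libraries from rounds of error-prone PCR were transcribed with T7 RNA polymerase for 5 hours at 37°C and then given 15 min of DNase I treatment before EDTA was added. The RNAs were reverse transcribed with template switching and sequenced on Illumina, and DNA sequencing linked barcodes to variants. A minimum of 5 reads applied, and three batches were averaged.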
Regarding UAACAGGGGGCCACAGCGGAAGCGUUCACGUCGCAGCCCCUGUCGGAUUCUGGUGAAUCUGCGAAUUCUGCUGUAUAACUC [A18G A45G U78A], the self-cleavage turned out to be 0.79.
Regarding UAACAGGGGGCCACAGCGGAAGCGUUCACGUCGCUGCCCUUGUCAGAUUCUGGUGAAUCUGCGAAUUCUGCUGUAUAUCUC [A18G A35U C40U], the self-cleavage was 0.08.
Regarding UAACAGGGGGCCACAGCGGAAGCGUUCACGUCGCGGCCCCUGUCAGAUUCUGGUGAAUCUGCGAAUUCUGCUGUAAAUCUC [A18G A35G U76A], the self-cleavage is 1.18.
Next, UAACAGGGGGCCACAGCGGAAGCGUUCACGUCGCUGCCCCUGUCAGAUUCUGGUGGAUCUGCGAAUUCUGCUGUAUAUCUC [A18G A35U A56G]: 0.13; UAACAGGGGGCCACAGCGGAAGCGUUCACGUCGCGGCCCCUGUCAGAUUCCGGUGAAUCUGCGAAUUCUGCUGUAUAUCUC [A18G A35G U51C]: 1.13.
The figure for UAACAGGGGGCCACAGCGGAAGCGUUCACGUCGCAGCCCCUGUCUGAUUCUGGUGUAUCUGCGAAUUCUGCUGUAUAUCUC [A18G A45U A56U] is 0.14; for UAACAGGGGGCCACAGCGGAAGCGUUCACGUCGCUGCCCCAGUCAGACUCUGGUGAAUCUGCGAAUUCUGCUGUAUAUCUC [A18G A35U U41A U48C] it is 0.06; for UAACAGGGGGCCACAGCGGAAGCGUUCACGUCGCGGCCCCUGUCAGAUUCUGGUGAAUCCGCGAAUUCUGCUGUAUAUCUC [A18G A35G U60C] it is 0.34.
Next, UAACAGGGGGCCACAGCGGAAGCGUUCACGUCGCAGCCCCUGUCGGAUUCUGGUGAAUCUGCGGAUUCUGCUGCAUAUCUC [A18G A45G A64G U74C]: 0.61; UAACAGGGGGCCACAGCGGAAGCGUUCACGUCGCUGCCCCUGUCAGAUUCUGGUGAAUCUGCGAAUUCUGCCGUAUAUCUC [A18G A35U U72C]: 0.11; UAACAGGGGGCCACAGCGGAAGCGUUCACGUCGCGGCCCCUGUCAGAUACUGGUGAAUCUGCGAAUUCUGCUGUAUAUCUC [A18G A35G U49A]: 0.98.
For the variant UAACAGGGGGCCACAGCGGAAGCGUUCACGUCGCAGCCCCUGUCGGAUUCUGGUGAAUCUGCGUAUUCUGCUGUAUACCUC [A18G A45G A64U U78C], the self-cleavage stood at 0.16.
Turning to UAACAGGGGGCCACAGCGGAAGCGUUCACGUCGCAGCCCCUGUCGGAUUCUGGUGAAUCUGCGAGUUCUGCUGUAUAUCUC [A18G A45G A65G], the self-cleavage is 0.22.
Next, UAACAGGGGGCCACAGCGGAAGCGUUCACGUCGCUGCCCCUGUCAGAUUCUAGUGAAUCUGCGAAUUCUGCUGUAUAUCUC [A18G A35U G52A]: 0.22; UAACAGGGGGCCACAGCGGAAGCGUUCACGUCGCGGCCCCUGUCAGAUUCUGGUGAAACUGCGAAUUCUGCUGUAUAUCUC [A18G A35G U58A]: 0.29; UAACAGGGGGCCACAGCGGAAGCGUUCACGUCGCGGCCCCUGUCAGAUUCUGGUGAACCUGCGAAUUCUGCUGUAUAUCUC [A18G A35G U58C]: 0.71.
The figure for UAACAGGGGGCCACAGCGGAAGCGUUCACGUCGCGGCCCCCGUCAGAUUCUGGCGUAUCUGCGAAUUCUGCUGUAUAUCUC [A18G A35G U41C U54C A56U] is 0.35.
Take UAACAGGGGGCCACAGCGGAAGCGUUCACGUCGCAGCCCCUGUCUGAUUCUGGCGAAUCUGCGAAUUCUGCUGUAUAUCUC [A18G A45U U54C]: the self-cleavage was found to be 0.09.
The figure for UAACAGGGGGCCACAGCGGAAGCGUUCACGUCGCGGCCCCCGUCAGAUUCUGGUGAAUCUGCGGAUUCUGCUGUAUAUCUC [A18G A35G U41C A64G] is 0.88; for UAACAGGGGGCCACAGCGGAAGCGUUCACGUCGCAGCCCCUGUCUGAUUCCGGUGAAUCUGCGAAUUCUGCUGUAUAUCUC [A18G A45U U51C] it is 0.16.
Next, UAACAGGGGGCCACAGCGGAAGCGUUCACGUCGCAGCCCCUGUCAGGUUCUGGUGGAUCUGCGAAUUCUCCUGUAUACCUC [A18G A47G A56G G70C U78C]: 0.05; UAACAGGGGGCCACAGCGGAAGCGUUCACGUCGCUGCCCCUGUCAGAUUCAGGUGAAUCUGCGUAUUCUGCUGUAAAUCUC [A18G A35U U51A A64U U76A]: 0.13.
Next, UAACAGGGGGCCACAGCGGAAGCGUUCACGUCGCUGCCCCUGUCAGAUUCUGGUGGAUCUGCGAACUCUGCUGUAGAUCUC [A18G A35U A56G U66C U76G]: 0.07.
Take UAACAGGGGGCCACAGCGGAAGCGUUCACGUCGCGGCCCCUGUCAGAUCCUGGUGGAUCUGCGAAUUCUGCUGUAUAUCUC [A18G A35G U49C A56G]: the self-cleavage worked out at 1.07.
Next, UAACAGGGGGCCACAGCGGAAGCGUUCACGUCGCGGCCCCUGUCAGAUUCUGGCGAAUCUGCGAAUUCUGCUGUGUAUAUC [A18G A35G U54C A75G C79A]: 1.22.
Next, UAACAGGGGGCCACAGCGGAAGCGUUCACGUCGCAGCCCCUGUCGGAUUCUGGUGGACCUGCGAAUUCUGCUGUAUAUCUC [A18G A45G A56G U58C]: 0.21; UAACAGGGGGCCACAGCGGAAGCGUUCACGUCGCUGCCCCUGUCAGAUACUGGUGAAUCUGCGGAUUCUGCUGUAUACCUC [A18G A35U U49A A64G U78C]: 0.07; UAACAGGGGGCCACAGCGGAAGCGUUCACGUCGCUGCCCCUGUCAGAUUCUGGUGAAUCUGCGAAUUCUGCUGUAUCUCUC [A18G A35U A77C]: 0.13.
Take UAACAGGGGGCCACAGCGGAAGCGUUCACGUCGCUGCCCCUGUCAGAUUCUGGUGAGUCUGCGAAUUCUGCUGAAUAUCUC [A18G A35U A57G U74A]: the self-cleavage amounted to 0.52.
Next, UAACAGGGGGCCACAGCGGAAGCGUUCACGUCGCUGCCCCUGCCAGAUUCUGGUGAAUCUGCGAAUUCUGCUGUAUAUCUC [A18G A35U U43C]: 0.21.
The figure for UAACAGGGGGCCACAGCGGAAGCGUUCACGUCGCUGCCCCUAUCAGAUUCUGGUGAAUCUGCGAAUUCCGCUGUAUAUCUC [A18G A35U G42A U69C] is 0.11; for UAACAGGGGGCCACAGCGGAAGCGUUCACGUCGCAGCCCCUGUCGGAUUCAGGUGAAUCUGCGGAUUCUGCUGUAUAUCUC [A18G A45G U51A A64G] it is 0.37; for UAACAGGGGGCCACAGCGGAAGCGUUCACGUCGCGGCCCCUGUCAGAUUCAGGUGAAUCUGCGAAUUCUGCCGUAUAUCUC [A18G A35G U51A U72C] it is 1.01.
Next, UAACAGGGGGCCACAGCGGAAGCGUUCACGUCGCUGCCCCUGUCGGAUUCCGGUGAAUCCGCGAAUUCUGCGGUAUAUCCC [A18G A35U A45G U51C U60C U72G U80C]: 0.02.
